Assay results as given in the antibiotic and cytotoxicity screens of Wong et al. (2023).
Some of the results follow.

Tested on: HSkMC (human skeletal muscle cells)
Assay: cytotoxicity call (relative viability < 0.9)
Details: 10 µM

SMILES | cytotoxicity call
COc1ccc(NC(=O)Nc2ccc3c(c2)C(=O)N([C@H](C)CO)C[C@H](C)[C@@H](CN(C)C(=O)c2ccccc2)OCCCC[C@H](C)O3)cc1 | inactive
CC(C)NC(=O)Nc1ccc2c(c1)C(=O)N([C@H](C)CO)C[C@H](C)[C@@H](CN(C)Cc1ccc3c(c1)OCO3)O2 | inactive
C[C@H]1CN([C@@H](C)CO)C(=O)c2cc(-c3cncnc3)cnc2O[C@H]1CN(C)C(=O)Nc1ccc2c(c1)OCO2 | inactive
C[C@H](CO)N1C[C@H](C)[C@@H](CN(C)Cc2ccc3c(c2)OCO3)Oc2c(NC(=O)c3ccncc3)cccc2C1=O | inactive
CCCN(C)C[C@@H]1OCCCC[C@@H](C)Oc2ccc(NC(=O)Nc3c(C)noc3C)cc2C(=O)N([C@H](C)CO)C[C@@H]1C | inactive
Cc1ncc([N+](=O)[O-])n1C[C@@H](C)O | inactive
CCCNC(=O)C[C@@H]1CC[C@H]2[C@H](COc3ccc(NC(=O)c4ccc5c(c4)OCO5)cc3C(=O)N2C)O1 | inactive
Cc1ccc(S(=O)(=O)Nc2ccc3c(c2)C(=O)N([C@H](C)CO)C[C@@H](C)[C@@H](CN(C)S(=O)(=O)c2cn(C)cn2)O3)cc1 | inactive
C[C@H](CO)N1C[C@H](C)[C@H](CN(C)CC2CC2)OCCCC[C@H](C)Oc2ccc(NC(=O)Nc3cccc4ccccc34)cc2C1=O | inactive
C[C@H](CO)N1C[C@H](C)[C@@H](CN(C)C(=O)c2ccccc2F)Oc2ncc(C#Cc3ccncc3)cc2C1=O | inactive
CC(C)(C)[C@H]1COC(=O)[C@@H](NC(=O)OCC2c3ccccc3-c3ccccc32)CC=CC[C@H](CC(=O)N(CCO)Cc2ccccc2)C(=O)N1 | inactive
Cc1ccc(S(=O)(=O)Nc2ccc3c(c2)C(=O)N([C@H](C)CO)C[C@@H](C)[C@H](CN(C)Cc2ccc4c(c2)OCO4)OCCCC[C@@H](C)O3)cc1 | inactive
C[C@H](CO)N1C[C@H](C)[C@@H](CN(C)C(=O)CN(C)C)Oc2cc(C#Cc3ccc(F)cc3)ccc2S1(=O)=O | inactive
C[C@@H]1CN([C@@H](C)CO)C(=O)Cc2cc(NC(=O)Nc3ccc(F)cc3)ccc2O[C@H]1CN(C)Cc1ccc(-c2ccccc2)cc1 | inactive
O=C(CCCCC(=O)N/N=C/[C@H](O)[C@@H](O)[C@@H](O)[C@H](O)C(=O)O)NO | inactive
CCC1OC(=O)C(C)C(OC2CC(C)(OC)C(O)C(C)O2)C(C)C(OC2OC(C)CC(N(C)C)C2O)C(C)(OC)CC(C)C(=O)C(C)C(O)C1(C)O (stereo not given) | inactive
CC(C)NC(=O)N(C)C[C@H]1Oc2c(NS(=O)(=O)c3cccs3)cccc2C(=O)N([C@H](C)CO)C[C@@H]1C | inactive
C[C@@H]1CN([C@@H](C)CO)C(=O)Cc2cc(NC(=O)Nc3ccc(C(F)(F)F)cc3)ccc2O[C@@H]1CN(C)C(=O)Nc1ccc2c(c1)OCO2 | inactive
C[C@@H]1CN([C@@H](C)CO)C(=O)c2cccc(NS(=O)(=O)c3ccc(F)cc3)c2O[C@H]1CN(C)Cc1ccc(Cl)c(Cl)c1 | inactive
C[C@H](CO)N1C[C@H](C)[C@@H](CN(C)C(=O)NC2CCCCC2)OCCCC[C@H](C)Oc2ccc(NC(=O)Nc3ccc4c(c3)OCO4)cc2C1=O | inactive

SMILES | cytotoxicity call
COc1ccc(NC(=O)Nc2ccc3c(c2)C(=O)N([C@@H](C)CO)C[C@@H](C)[C@@H](CN(C)Cc2ccc(Oc4ccccc4)cc2)O3)cc1 | inactive
NC(=O)c1cc(S(=O)(=O)N2CCOCC2)ccc1F | inactive
C[C@@H]1O[C@H]2Oc3c(-c4ccc(O)c(O)c4)oc4cc(O)c(c(O)c4c3=O)-c3cc(ccc3O)/C=C\C(=O)OC[C@H]3O[C@@H](O[C@H]([C@H]1O)[C@H]2O)[C@H](O)[C@@H](O)[C@@H]3O | inactive
C[C@@H]1CN([C@H](C)CO)C(=O)c2cccc(NC(=O)C3CC3)c2O[C@H]1CN(C)S(=O)(=O)c1cn(C)cn1 | inactive
O=C(CCCCCCC(=O)N/N=C/[C@@H](O)[C@@H](O)[C@H](O)[C@H](O)CO)NO | inactive
CCOC(=O)N(C)C[C@@H]1OCc2cnnn2CCCC(=O)N([C@H](C)CO)C[C@@H]1C | inactive
C[C@@H]1CCCCO[C@H](CN(C)Cc2ccc3c(c2)OCO3)[C@H](C)CN([C@H](C)CO)C(=O)c2cc(NC(=O)Nc3ccccc3)ccc2O1 | inactive
C[C@@H]1CCCCO[C@H](CN(C)C(=O)Nc2cccc3ccccc23)[C@H](C)CN([C@@H](C)CO)C(=O)c2cc(N(C)C)ccc2O1 | inactive
Cn1cncc1C(=O)O | inactive
Cc1noc(C)c1S(=O)(=O)Nc1ccc2c(c1)C(=O)N([C@@H](C)CO)C[C@H](C)[C@@H](CN(C)S(=O)(=O)c1cccs1)O2 | inactive
C[C@@H]1CCCCO[C@@H](CN(C)CC2CCCCC2)[C@H](C)CN([C@H](C)CO)C(=O)c2cc(NC(=O)CCCCCC(=O)Nc3ccccc3N)ccc2O1 | inactive
COc1ccc(-c2ccc3c(c2)O[C@@H](CN(C)CC2CCOCC2)[C@@H](C)CN([C@H](C)CO)S3(=O)=O)cc1 | inactive
C[C@@H]1CN([C@H](C)CO)C(=O)c2cc(NC(=O)CCCN(C)C)ccc2O[C@@H]1CN(C)Cc1ccc(C(=O)O)cc1 | inactive
C#Cc1cnc(OC)cn1 | inactive
O=C(C[C@@H]1CC[C@H](NS(=O)(=O)c2ccccc2)[C@H](CO)O1)NCc1ccncn1 | inactive
CCCN(C)C[C@H]1OCCCC[C@H](C)Oc2ccc(NC(=O)Nc3ccc(OC)cc3)cc2C(=O)N([C@H](C)CO)C[C@@H]1C | inactive
O=C(C[C@H]1CC[C@H](NC(=O)Cc2ccccn2)[C@@H](CO)O1)NCCc1ccncc1 | inactive
C[C@@H]1CCCCO[C@@H](CN(C)Cc2ccc(Cl)c(Cl)c2)[C@H](C)CN([C@H](C)CO)C(=O)c2cc(NS(=O)(=O)c3cn(C)cn3)ccc2O1 | inactive
COC(=O)C1=C(C)NC(C)=C(C(=O)OC(C)(C)CN(C)CCC(c2ccccc2)c2ccccc2)[C@@H]1c1cccc([N+](=O)[O-])c1 | active
C[C@H](O)C#Cc1ccc2c(c1)O[C@H](CN(C)C(=O)c1ccccc1)[C@@H](C)CN([C@@H](C)CO)S2(=O)=O | inactive
